Source: the antibiotic and cytotoxicity screens of Wong et al. (2023)
The other results are listed elsewhere or left out.

system: S. aureus RN4220; test: growth inhibition call (relative growth <= 0.2); conditions: 50 µM

Growth inhibition call, inactive:
COc1cccc(S(=O)(=O)N(C)C[C@@H]2Oc3cc(C#CCN(C)C)ccc3S(=O)(=O)N([C@@H](C)CO)C[C@H]2C)c1, C[C@@H]1CCCCO[C@@H](CN(C)C(=O)Nc2ccc(C(F)(F)F)cc2)[C@H](C)CN([C@H](C)CO)C(=O)c2cc(NC(=O)Cc3ccccc3)ccc2O1, C[C@H](CO)N1C[C@H](C)[C@@H](CN(C)C(=O)Nc2ccc3c(c2)OCO3)Oc2ccc(NC(=O)Nc3cccc4ccccc34)cc2C1=O, CC(C)(C)[S@](=O)N1Cc2cc(C(=O)NC3CCC3)nc(-c3cccc(-c4ccccc4F)c3)c2[C@@H]1CCO, COc1ccc(NC(=O)N(C)C[C@@H]2OCCCC[C@@H](C)Oc3ccc(NC(=O)Nc4ccc5c(c4)OCO5)cc3C(=O)N([C@@H](C)CO)C[C@H]2C)cc1, CC(C)NC(=O)N(C)C[C@@H]1Oc2ccc(NC(=O)Cc3ccccc3)cc2C(=O)N([C@H](C)CO)C[C@@H]1C, CC(CCc1ccccc1)NCC(O)c1ccc(O)c(C(N)=O)c1.Cl (centres undefined), CN1C(=O)c2cc(NC(=O)C3CCCC3)ccc2OC[C@H]2O[C@@H](CC(=O)NCCc3ccncc3)CC[C@H]21, CN(C)C(=O)c1cc2c(c(-c3cccc(/C=C/c4ccccc4)c3)n1)[C@H](CCO)N([S@@](=O)C(C)(C)C)C2
